Source: PubChem BioAssay AID1508624 (National Center for Advancing Translational Sciences (NCATS), 2021)
Screen size: about 48,000 compounds; about 120 (0.25%) were called active. Another 4% or so got no clear call; they are omitted. Calls follow the shape of the dose curve; as a rule, active = well fitted activation curve with a large enough effect; inconclusive = small, poorly fitted or top-dose-only effect, or another doubt; inactive = no such curve, though single readings can be large or run the other way. Some of the results follow.

test: Primary qHTS for Identification of Small Molecule Activators of Huntingtin-Antisense Promoter Activity; conditions: HEK293 HTT-AS promoter firefly luciferase reporter, 24 h; series mostly up to 57.5 µM; activity change, positive = activation: at the top concentration; also: nearly all actives have a fitted effect of over 55% in size
In short: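 HEK293 luciferase promoter-reporter cells (2,500/well) plated 24 h, then compounds added at up to 57.5 uM final for 24 h at 37 °C. Firefly luminescence by Dual-Glo, normalized to vehicle (0%) and zero RLU (-100%).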

Activity change, positive = activation, inactive:
CCc1ccc(NC(=O)CSc2ncc(S(=O)(=O)c3cc(C)ccc3C)c(=O)[nH]2)cc1 -1.19%
O=C(O)Cc1cn(-c2ccccc2)nc1-c1ccc(Cl)cc1 -12.1%
COc1ccc(CC(=O)NC2CC(=O)N(c3ccc(C)c(C)c3)C2)cc1OC (stereo not drawn) -18.3%
O=C(Cn1c(=O)oc2cc(S(=O)(=O)N3CCCCC3)ccc21)NCc1ccc(F)cc1 -48.8%
Cc1ccc(CNC(=O)CN2C(=O)C3(SCC(=O)N3c3ccc(F)c(F)c3)c3ccccc32)cc1 (stereo not drawn) 9.11%
COc1ccc(-c2nc(Cn3c(SCc4ccccc4F)nc4cccnc43)c(C)o2)cc1 -27.4%
COC(=O)c1c(NC(=O)c2ccc(S(=O)(=O)N(C)C3CCCCC3)cc2)sc2c1CCN(C)C2 -16.7%
O=NN(CCCl)C(=O)NC1CCCCC1
CCOC(=O)C(Cc1ccccc1)NC(=O)CCc1c(C)nc2c(c(C)nn2-c2ccc(C)c(C)c2)c1C (stereo not drawn) -7.69%
COC(=O)c1ccccc1NC(=O)C1CCCN(c2nnc(C)c3c(C)n(-c4ccccc4)nc23)C1 (stereo not drawn) -0.307%
O=C(CN1C(=O)CCc2cc(S(=O)(=O)N3CCCCC3)ccc21)NCc1ccc(Cl)cc1 -10.5%
COc1ccc(C2C=C(c3ccc(Br)cc3)Nc3nnnn32)c(OC)c1 (stereo not drawn) -24.9%
COc1ccc(Nc2cc(C(=O)NC3CCCC3)c3ccccc3n2)cc1 -15.3%
COc1ccccc1CNc1nc2c(S(=O)(=O)c3ccccc3)nnn2c2ccc(Cl)cc12 17.5%
Cc1ccc(NC(=O)c2c(NC(=O)c3ccccc3Cl)sc3c2CCC3)cc1 -4.79%
O=C(CSc1nccn1Cc1ccc(F)cc1)NCc1ccc(F)cc1 -21.1%
CN1CCN(C(=O)Cn2ncc3c4ccccc4n(Cc4ccc(Cl)cc4)c3c2=O)CC1 -12.5%
Cc1cc(C)c(NC(=O)c2c(C)nn(-c3ccc(F)cc3)c2-n2cccc2)c(C)c1 -33.4%
CS(=O)(=O)N1CCc2cc(C(=O)N3CCN(c4ccccc4F)CC3)ccc21 -1.43%
Cc1ccccc1NC(=O)Cn1nnc(C(=O)NCCc2ccccc2)c1N -5.58%
O=C1Cc2cc(Cl)ccc2N1 -3.08%
O=C(NC1CCCCC1)c1ccc(CSc2nc3ccncc3n2Cc2ccc(F)cc2)cc1 -24.2%
CCc1nn2c(=O)c(S(=O)(=O)Nc3ccc(Br)cc3F)c(C)nc2s1 -24.6%
CC(=O)c1cccc(NC(=O)Cn2nc(C(F)(F)F)c3c2CCC3)c1 -17%
NC(=O)c1nn2c(C(F)(F)F)cc(-c3ccc(Br)cc3)nc2c1Cl -28.8%
CSc1nc(=O)c2c(n1C)NC(=O)CC2c1cc(F)cc(F)c1 (stereo not drawn) -10.7%
Cc1ccc2nc(Cl)c3cc(C(=O)NCCCN(C)Cc4ccccc4)sc3c2c1 -12.7%
COc1ccc(-c2cc(C(F)(F)F)n3nc(C(=O)Nc4cc(C)ccc4C)cc3n2)cc1 8.75% [at 11.5 µM, percent change from vehicle, -100% = no light]
Cc1ccc2c(c1)c1c3n2CCN(C(=O)c2ccc(C(F)(F)F)cc2)C3CCC1 (stereo not drawn) -20.7%
CC1=C(C(=O)OCc2ccc(C)cc2)C(c2cccc(F)c2F)CC(=O)N1 (stereo not drawn) -46%
CCOC(=O)c1sc2ccccc2c1S(=O)(=O)N1CCN(c2cc(C)ccc2C)CC1 -29.3%
COc1ccc(CCNC(=O)c2cc3c(=O)oc4ccc(C)cc4c3s2)cc1OC -4.45%
CCNC(=O)c1cc2n(n1)CCCN(Cc1ccc(C)cc1)C2=O 4.59%
COc1ccc(OCC(=O)Nc2ccc3nn(-c4ccc(OC)cc4)nc3c2)cc1 -36.4%
Cc1nn(C(=O)c2cccc(F)c2)c(C)c1S(=O)(=O)N1CCOCC1 -11.7%
CCc1ccc(S(=O)(=O)NCc2nc3cccnc3n2Cc2cccc(OC)c2)cc1 -22%
CCCCCn1c(CNC(=O)c2ccccc2)nc2ccccc21 -11.9%
CCOc1ccc(NC(=O)Cn2c(=O)n(CCCCC(=O)NCc3ccc4c(c3)OCO4)c(=O)c3ccccc32)cc1 -55.6%
CCN(CC)c1ccc(-n2nc3cc(C)c(NC(=O)c4ccccc4C)cc3n2)c(C)c1 -25.9%
Cc1ccccc1Cn1c(=O)n(CC2CCC(C(=O)N3CCOCC3)CC2)c(=O)c2sccc21 (stereo not drawn) -18.2%
Cc1cc(C)c(S(=O)(=O)N2CCN(Cc3ccc4c(c3)OCO4)CC2)cc1C -17.6%
Cc1c(Cl)cccc1Nc1nn2c(=O)c3ccc(C(=O)NCCC4=CCCCC4)cc3nc2s1 -15.1%
COc1ccc(S(=O)(=O)c2nnn(-c3ccc(C(C)C)cc3)c2C)cc1 -43.8%
CCOC(=O)C1=C[C@]2(CC)CCCN3CCc4c(n1c1ccccc41)[C@@H]32
Cc1ccc(C)c(N(C)C(=O)Cc2c(C(=O)O)[nH]c3ccc(Cl)cc23)c1 -25.1%
CC(C)(C)CC(C)(C)c1ccc(OCC(=O)Nc2ccc(S(=O)(=O)Nc3ncccn3)cc2)cc1 11.5%
COc1ccc(C2C(C(=O)Nc3ccc(C)cc3C)=C(C)Nc3nc(SCc4cccc(C)c4)nn32)c(OC)c1 (stereo not drawn) -0.642%
COc1ccccc1-c1nn2c(=O)cc(CN3CCN(C(=O)/C=C/c4ccccc4)CC3)nc2s1 -7.45%
COc1ccc(N2CCN(S(=O)(=O)c3ccc(-c4cnc(C5CC5)o4)cc3)CC2)cc1 -6.23%
COc1cccc(CNC(=O)CN2C(=O)N(c3cccc(Cl)c3)S(=O)(=O)c3ccccc32)c1OC -32.3%
CC1=C(C(=O)Nc2ccc(C)cc2C)C(c2ccc(Br)cc2)n2ncc(C(=O)Nc3cccc(C)c3)c2N1 (stereo not drawn) -8.51%
COc1ccccc1CNC(=O)CSc1nc(=O)[nH]c2c1CCC2 -4.26%
O=C(c1ccc2c(c1)N(Cc1cccc(Cl)c1)C(=O)c1ccccc1S2=O)N1CCN(c2cccc(C(F)(F)F)c2)CC1 (stereo not drawn) -26.4%
Cc1ccc(N(C)C(=O)CN2C(=O)CCc3cc(S(=O)(=O)N4CCOCC4)ccc32)cc1 -11%
COc1ccccc1CNC(=O)CCn1cnc2ccccc2c1=O 4.2% [at 11.5 µM, percent change from vehicle, -100% = no light]
O=C(NC1CC(=O)N(c2ccc(F)cc2)C1)c1ccc2c(c1)OCO2 (stereo not drawn) -15.1%
CCN1CCN(C(c2ccccc2Cl)c2c(O)cc(C)n(Cc3ccco3)c2=O)CC1 (stereo not drawn) -6.4%
Cn1c(=O)c2c(ncn2Cc2ccc(Cl)cc2)n(C)c1=O -25.7%
